{"source": "paper PMC4336329", "about": "(PLoS ONE, 2015)", "note": "In all, about 310,000 compounds went through this assay and about 14,000 (4.5%) showed an effect of 50% or more. The effect is printed as a negative number. The list shows a part of the results.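 Further: peak tail current of the secondary pulse compared with the same well before compound.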"}
{"target": "human ether-à-go-go-related gene (hERG) potassium channel (human, UniProt Q12809)", "sequence (Q12809 whole entry, looked up)": "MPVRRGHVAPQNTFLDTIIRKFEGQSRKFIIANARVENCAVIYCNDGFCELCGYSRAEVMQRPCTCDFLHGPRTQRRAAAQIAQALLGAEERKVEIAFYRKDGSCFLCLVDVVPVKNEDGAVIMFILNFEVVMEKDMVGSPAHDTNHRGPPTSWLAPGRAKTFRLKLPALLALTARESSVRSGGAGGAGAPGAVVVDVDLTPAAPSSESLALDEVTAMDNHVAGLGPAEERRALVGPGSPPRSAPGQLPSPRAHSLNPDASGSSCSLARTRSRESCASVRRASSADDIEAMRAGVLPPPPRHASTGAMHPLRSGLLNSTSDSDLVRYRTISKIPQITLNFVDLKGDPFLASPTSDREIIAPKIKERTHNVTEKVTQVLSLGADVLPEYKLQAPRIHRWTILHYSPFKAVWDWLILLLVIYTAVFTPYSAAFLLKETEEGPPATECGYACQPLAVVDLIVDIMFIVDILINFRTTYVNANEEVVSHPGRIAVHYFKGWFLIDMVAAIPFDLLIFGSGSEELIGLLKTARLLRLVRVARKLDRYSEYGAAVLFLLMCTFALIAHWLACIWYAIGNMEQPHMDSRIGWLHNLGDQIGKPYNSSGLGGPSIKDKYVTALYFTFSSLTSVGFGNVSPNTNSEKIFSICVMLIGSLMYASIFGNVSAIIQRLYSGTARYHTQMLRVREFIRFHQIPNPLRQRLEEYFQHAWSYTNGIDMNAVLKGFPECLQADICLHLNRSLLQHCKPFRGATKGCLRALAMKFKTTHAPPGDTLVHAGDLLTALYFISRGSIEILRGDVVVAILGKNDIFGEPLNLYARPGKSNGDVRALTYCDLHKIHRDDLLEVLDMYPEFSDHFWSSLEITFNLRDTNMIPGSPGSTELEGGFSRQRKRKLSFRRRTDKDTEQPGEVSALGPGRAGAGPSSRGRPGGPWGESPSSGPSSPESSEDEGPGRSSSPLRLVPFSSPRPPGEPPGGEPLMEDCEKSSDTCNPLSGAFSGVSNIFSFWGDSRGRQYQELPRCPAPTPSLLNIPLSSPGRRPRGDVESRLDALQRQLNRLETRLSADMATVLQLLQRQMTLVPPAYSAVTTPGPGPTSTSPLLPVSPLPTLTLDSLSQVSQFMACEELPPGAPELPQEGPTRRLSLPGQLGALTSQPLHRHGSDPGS", "experiment": "primary screen, population patch clamp on CHO cells stably expressing hERG", "units": {"hERG current change (%, negative = inhibition) at 10uM": "%"}}
{"smiles": "CCOc1ccc(-n2c(SCC(=O)Nc3nccs3)nnc2-c2ccoc2C)cc1", "hERG current change (%, negative = inhibition) at 10uM": -56.1}
{"smiles": "O=C(O)CCC(=O)N1CCN(c2nc(-c3ccccc3)c3cc(Br)ccc3n2)CC1", "hERG current change (%, negative = inhibition) at 10uM": 3.79}
{"smiles": "CCCCCCCCn1sccc1=O", "hERG current change (%, negative = inhibition) at 10uM": -33.8}
{"smiles": "NC(=O)C1CCN(c2oc(/C=C/c3ccc(F)cc3)nc2S(=O)(=O)c2ccccc2)CC1", "hERG current change (%, negative = inhibition) at 10uM": 5.52}
{"smiles": "Cc1cccc(N2C(=O)CC(Sc3ccccc3C(=O)O)C2=O)c1", "note": "(stereo not drawn)", "hERG current change (%, negative = inhibition) at 10uM": 10.5}
{"smiles": "COCCC(=O)N1CCC(Oc2ccc(C(=O)N(C)C(C)c3ccon3)cc2)CC1", "note": "(stereo not drawn)", "hERG current change (%, negative = inhibition) at 10uM": 13.1}
{"smiles": "Cc1cc(C)c(S(=O)(=O)N2CCOC2CNC(=O)C(=O)NCCc2ccc(S(N)(=O)=O)cc2)c(C)c1", "note": "(stereo not drawn)", "hERG current change (%, negative = inhibition) at 10uM": -17.8}
{"smiles": "COc1ccccc1CCNC1C2CC3CC(C2)CC1C3", "note": "(stereo not drawn)", "hERG current change (%, negative = inhibition) at 10uM": -32.6}
{"smiles": "CCc1ccc(C(=O)/C=C/Nc2ccc(S(=O)(=O)Nc3cnc4ccccc4n3)cc2)cc1", "hERG current change (%, negative = inhibition) at 10uM": 17.5}
{"smiles": "Cl.O=C(Oc1cccnc1)c1ccco1", "hERG current change (%, negative = inhibition) at 10uM": 9.65}
{"smiles": "CC(C)n1cnnc1SCC(=O)Nc1ccc(N2CCCCC2)cc1", "hERG current change (%, negative = inhibition) at 10uM": 8.88}
{"smiles": "CCC(CC)Nc1ccc(C(CC(N)=O)NC(=O)Cc2ccc(Br)cc2)cc1[N+](=O)[O-]", "note": "(stereo not drawn)", "hERG current change (%, negative = inhibition) at 10uM": 5.94}
{"smiles": "C=CCn1c(O)c(CN2CCOCC2)c(C)c(C#N)c1=O", "hERG current change (%, negative = inhibition) at 10uM": 12.7}
{"smiles": "CCOc1ccc(N=C(/C(C(=O)C(=O)N2CCOCC2)=C(\\O)c2ccccc2)c2ccccc2)cc1", "hERG current change (%, negative = inhibition) at 10uM": 27.7}
{"smiles": "CCOC(=O)C1=C(C)N=C2SC(C)C(=O)N2C1c1ccc(C(=O)OC)cc1", "note": "(stereo not drawn)", "hERG current change (%, negative = inhibition) at 10uM": -12.6}
{"smiles": "CCS(=O)(=O)N1CCCC(C(=O)NCC2CCCO2)C1", "note": "(stereo not drawn)", "hERG current change (%, negative = inhibition) at 10uM": 17.8}
{"smiles": "O=C(NC(=S)NCCC1=CCCCC1)c1ccc(Br)o1", "hERG current change (%, negative = inhibition) at 10uM": 23.9}
{"smiles": "O=C(O)c1ccc(NC(=O)c2cn(-c3ccccc3)nc2-c2cccc(Cl)c2)cc1", "hERG current change (%, negative = inhibition) at 10uM": 24.1}
{"smiles": "C#CC1(NC(=O)NC(C)(C)C)CCCCC1", "hERG current change (%, negative = inhibition) at 10uM": 15.7}
{"smiles": "COc1cccc(/C=C2\\SC(=S)N(CCC(=O)N3CCCCC3)C2=O)c1", "hERG current change (%, negative = inhibition) at 10uM": 17.9}
{"smiles": "COc1ccc(OC)c(N(CC(=O)NC2CCCCCC2)S(=O)(=O)c2ccc(C)cc2)c1", "hERG current change (%, negative = inhibition) at 10uM": -4.32}
{"smiles": "CC(=NC1CCCCC1)C1=C(O)c2ccccc2C1=O", "hERG current change (%, negative = inhibition) at 10uM": 0.706}
{"smiles": "COC(=O)C1CCN(C(=O)COc2cc3sc(C)nc3c3sccc23)CC1", "hERG current change (%, negative = inhibition) at 10uM": -2.15}
{"smiles": "CN(C(=O)CSc1nnnn1-c1ccccc1)C1CCS(=O)(=O)C1", "note": "(stereo not drawn)", "hERG current change (%, negative = inhibition) at 10uM": 5.12}
